Laboratory results: the supplement of paper PMC7335073
The full ranking holds about 4,100 sequences; the median of “relative CpG methylation activity (normalised to average over all NNNCGNNN flanks)” is about 0.87, and the highest 2% start at about 2.4. This is one part of the list.

Each sequence was assayed against DNMT3A catalytic domain (mouse) (UniProt O88508) (assay: relative CpG methylation activity (normalised to average over all NNNCGNNN flanks) (relative (1 = mean)); higher = more methylation of the central CpG). Settings: system: in vitro, murine catalytic domain; CpG state: hemimethylated substrate pool; residues: 608-908.
Procedure, shortened: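 For Illumina sequencing, DNA was processed by proteinase K, BsaI-HFv2 digestion, hairpin ligation, bisulfite conversion and two-step PCR after methylation by murine DNMT3A or DNMT3B catalytic domain. The methylation reaction contained 0.8 mM S-adenosyl-L-methionine in HEPES pH 7.5 buffer and ran at 37 °C for 60 min on pooled dsDNA substrates with a central CpG inside 10 random flanking nucleotides. Relative methylation activity was computed as the average methylation of each flanking context divided by the mean over all contexts. Contexts covered three flanking bases per side, and there were two independent repeats per experiment.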
For GGCCGTCC, the “relative CpG methylation activity” value was 0.962. AGTCGTAA was tested, and the “relative CpG methylation activity” value was 0.912. With GCGCGTGA the “relative CpG methylation activity” value was 0.76. In the case of TGTCGGCA, the “relative CpG methylation activity” value is reported as 0.603. In the case of CTACGGTG, the “relative CpG methylation activity” value is reported as 0.876. For CATCGCGT, the “relative CpG methylation activity” value was 0.635. For TGACGAGG, the “relative CpG methylation activity” value was 0.449. GGACGAGC was tested, and the “relative CpG methylation activity” value was 1.1. In the case of ACTCGGTA, the “relative CpG methylation activity” value is reported as 0.639. In the case of TCTCGTCG, the “relative CpG methylation activity” value is reported as 1.61. CTGCGCGT was tested, and the “relative CpG methylation activity” value was 0.921. TACCGTAG was tested, and the “relative CpG methylation activity” value was 0.669. In the case of CCTCGGCG, the “relative CpG methylation activity” value is reported as 1.12. In the case of CACCGCGA, the “relative CpG methylation activity” value is reported as 0.587. With CAACGGTG the “relative CpG methylation activity” value was 0.292. With CGACGGCC the “relative CpG methylation activity” value was 1.02. In the case of TGCCGTCG, the “relative CpG methylation activity” value is reported as 1.29. For GATCGCCC, the “relative CpG methylation activity” value was 1.22. For TTACGTGT, the “relative CpG methylation activity” value was 1.22. For ATGCGGGC, the “relative CpG methylation activity” value was 1.26. TGTCGTTA was tested, and the “relative CpG methylation activity” value was 0.321. For CCACGTTG, the “relative CpG methylation activity” value was 0.694. For TGTCGGGA, the “relative CpG methylation activity” value was 0.267. With AGTCGCAG the “relative CpG methylation activity” value was 0.342. TATCGGCA was tested, and the “relative CpG methylation activity” value was 1.02. For ACTCGGAA, the “relative CpG methylation activity” value was 0.682. CGTCGCTC was tested, and the “relative CpG methylation activity” value was 1.71. For CAACGGAT, the “relative CpG methylation activity” value was 0.676. GCACGGTC was tested, and the “relative CpG methylation activity” value was 2.01. For TAGCGAAA, the “relative CpG methylation activity” value was 0.507.
